# Test results taken from the supplement of paper PMC11417369.
# This is one part of the list.
# Tested on: PfHDP1 homeodomain (GST-tagged)
# Test: gcPBM binding intensity (ln(normalized median fluorescence intensity)); higher = stronger DNA binding
# Outline: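 In this array assay, P. falciparum DNA-binding domains with a GST tag, expressed in E. coli, were applied for 1 h to primer-extended double-stranded 36-bp intergenic genomic probes and negative controls on an Agilent 4 × 180k array. Bound protein was visualised with Alexa488 anti-GST antibody at 488 nm. Binding intensity is the highest Masliner-normalised natural-log median intensity across replicate spots of either probe orientation.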
row,Sequence,gcPBM binding intensity (ln)
1,ACACATATGCATATATGTACATAATATATTAAACTT [XGTACX_site5975],6.76
2,AAAAAAAAAAGACACACACACACACTAATACATACA [CACACA_site6473],6.89
3,ATAATTAACAAATACACACACACACCCCCACAAAAA [CACACA_site518],9.01
4,AAATTAAAATATAATACACACATAAAAAAAAAAAAA [CACACA_site4183],6.43
5,TATATATTTTTTTTTTGTACTCACAATATATGTATG [XGTACX_site8024],6.79
6,AGTATTCATAAAAATACACACATGGAAAAATAAACT [CACACA_site6796],7.03
7,TGTATAAGTATTAATACACACACAAAATAATAAAAA [CACACA_site9156],7.05
8,TACTTACATTATTTATTTATATAAAAAGTTAATTAT [XGTACX_negctrl_site433],6.31
9,TTCCAAACCTCATTATGGAAAATAAAAAAATAAAAA [XGTACX_negctrl_site17],6.42
10,TTCCAAAAAGTTATTACACACATATGTGCACATATA [CACACA_site6465],11.2
11,AGAATATTATATTATGCATGCATATAGAAAAATATA [TGCATGCA_site302],6.81
12,ATAAAATATTTTTGAACATGCAGGTAAAAAATAAAA [TGCATGCA_site1019],6.55
13,TTTATTAGTAATTATACACACATATAAAATGAATAA [CACACA_site6754],6.34
14,TATATTTATAGGTACACACACACATATAAATAAATA [CACACA_site6345],6.78
15,AAAAAAAAAAAAAACACACACATATATATATATATA [CACACA_site1891],9.26
16,ATAAAATTATATTTTGCATGCAGGCCTTTTTCTTAA [TGCATGCA_site1030],6.93
17,AATTTTTTATATGTCACACATTTATTATTATTATTA [CACACA_site4198],6.56
18,ACTTATAAAAACATATACCCCATCGCATTTTTTCCA [XGTACX_negctrl_site177],6.69
19,TGTAATATAAAATTTTGTACTCAAAAATTTATATAT [XGTACX_site3252],5.97
20,TTTTTTTTTCTTTTCAAACACACAATTGGTATATAT [CACACA_site3321],6.68
21,ATATATTTTTTGAATACACACATATTATAGGTAATA [CACACA_site6709],6.53
22,TGACTGTAGATATTTTGTACATAACCTAATATATAT [XGTACX_site970],6.37

row,Sequence,gcPBM binding intensity (ln)
1,CTATTTATTTTTGATGCATGCCAAATATAGAAAAAA [TGCATGCA_site368],6.37
2,CGTATAAATATACGTGCATGTAACTTTTTCTATATT [TGCATGCA_site981],9.66
3,TAGTAGTTATCACTAACATGCAATAATATTATTTAA [TGCATGCA_site161],6.69
4,ATAACATATATATATACACACACATATATATATGAA [CACACA_site7983],6.85
5,TTTTTTTTTTTTTTTTGTACACATAATATGAATAAT [XGTACX_site2661],6.45
6,TTATGTACAATTTCTTCTTTCTTTTTTCCTAAAGAC [CACACA_negctrl_site1193],6.38
7,ATAATATAATACGAAGGTACACATTTTCTTAATATA [XGTACX_site7947],6.21
8,TATTACTATGTTATAACTTTTTTAAACGTGATCATA [TGCATGCA_negctrl_site128],5.97
9,TATTTAAAAAGAAAAAAAAAAAAAAAAATACATATA [CACACA_negctrl_site164],6.14
10,AAAAAAAAAAAATATACACACTAATATATTTTTTTA [CACACA_site4604],6.58
11,TATTAAATTTATCGGAGTACATTTAAATGTATATAC [XGTACX_site7975],6.76
12,TATATACGCAAACACACACACACATACACCCACATA [CACACA_site1724],7.47
13,AAAAAAAAAATTAAAACATGCATAAATAAATATATT [TGCATGCA_site866],6.47
14,TCATTTCACAGACACACACACACAATATATTTCCTT [CACACA_site9295],7.36
15,ATATTTTTATTAGTAGTGCAATTTAGTGTATATATA [GTGCAC_site9542],10.1
16,TATGTGTAATATTTTTGTACAGAAAAAAAAAAAAAA [XGTACX_site7075],6.41
17,AAAAAAAAAAAAAACACACACATGCACATCATATTA [CACACA_site4467],7.97
18,AAATATTTTTTTTCTACACACATACAAATATAGATT [CACACA_site7164],6.75
19,ATGCCCCATATAAACACACAAATAAAAAGAATATAC [CACACA_site7292],7.22
20,TGTAGTCTGGAGAAACGTACACAGTATCTGGTAACA [XGTACX_site4938],6.07
21,AAAGGGGATATATGAACACACAAAAAAAAAATATAT [CACACA_site2896],6.78
22,TATTTATTACTATGTAAACACACATGCAATATATGT [CACACA_site8288],6.69

row,Sequence,gcPBM binding intensity (ln)
1,ATATTTAAAGAATAAGTGCAAAATGTAATTAATTTT [GTGCAC_site9901],9.7
2,TATATTTTATAAAAAAGTACACATGAAAATGTATTT [XGTACX_site5889],6.14
3,AAATTTTATTATAGCAGTACAATATAATATTATTAA [XGTACX_site1971],6.33
4,TTTTTTCCTTTTAATTGTACACAGATATAATATATT [XGTACX_site2230],6.77
5,TGTTGATGATATTACACACCCAATGAGAAAAGGAAT [CACACA_site2072],7.07
6,TTTTACAAAATAAAAATATAGAATACGGTAAATTAT [GTGCAC_negctrl_site40],6.74
7,TAAAAATGTGGACACACACACATATTTATATTTAAT [CACACA_site6827],6.38
8,TATCATTTTATTATTCTACACACTTATCTATAATTA [CACACA_site7894],6.56
9,TTTTTTTTTTTTTTTGCATGTTGTTTAATGTATTGT [TGCATGCA_site772],6.47
10,AAATAAGAGCGTAGCACACACGCATTTTATAAATGT [CACACA_site741],6.39
11,AATATATTTTTCTACCGTACATAATAAAATATATAT [XGTACX_site1777],6.77
12,GAACCACTAAAATGAGCATGCTCATATTTACATATA [TGCATGCA_site1033],9.44
13,TATTTATTTATTTATTGTACATAAGTATATATTATA [XGTACX_site6566],6.52
14,AAAAAAAAAAAAAGTACACACTTTTGCGTACATGTA [CACACA_site7449],6.49
15,AAAAAGTAGTAAAACAGTACAGTATTTATGCCTATT [XGTACX_site6434],6.69
16,TGGTATGTTTTACAAAGTACCCATCGATTCTTATGT [XGTACX_site2822],6.03
17,ATTACATACACGCGCACACACAAAAAAAAAAAAAAA [CACACA_site1334],7.49
18,GTACTCTTCTCCAGACTGCACTATACGACTCGTACA [GTGCAC_site9770],7.35
19,ATATATATATATATATGTACTTATATATAATATAGA [XGTACX_site3488],9.28
20,TATTATATATATAAATGTACTTATTTTAATTCCCCT [XGTACX_site8638],6.54
21,TTTTGTTTATTATGATTCAAAATGATTTTATCTTTG [TGCATGCA_negctrl_site425],6.17
22,AAAAAAACATGAAACACACACAAATATTTATTTATA [CACACA_site6967],6.68

row,Sequence,gcPBM binding intensity (ln)
1,TGTTTCCAAAAAAAAAAAAAAAAAAAAAAAAAAAAA [CACACA_negctrl_site358],6.2
2,TAAAAAAAATAGTCAAGTACATAAGAAGGGAAGAAA [XGTACX_site8733],6.62
3,ACTAAAAGATATATAATTTCTTTCTTATTTATTTTT [CACACA_negctrl_site842],6.02
4,TTATTCATATTATCATGTACTTATATATATTGTCAT [XGTACX_site2231],6.42
5,AATAAATAAGCAACATGTACATACAAATATATACAT [XGTACX_site8529],6.37
6,TTTAATTTTTTTAATTCACACATTATTCCATCCTTT [CACACA_site5480],6.39
7,ATCTAATAAAAATACACACACATATGATTTGTGAAT [CACACA_site1867],6.61
8,ATTTTCCATTGTGCTACACACAACGGTTCGCAATAA [CACACA_site2974],6.63
9,ATATTTAAATGTAATACATGCAAATTTGAACATTTT [TGCATGCA_site736],7.17
10,TAATATATTAACATGGGTACATATTATTTCATGTGT [XGTACX_site5985],6.42
11,AAAAAAAAAAAAATCACACATATGTATTTATATATA [CACACA_site5790],6.22
12,AAAAATTTAAGTGGGGGTACATTTTTTTAACACCTT [XGTACX_site1093],7.13
13,AACAAACACGGACACACACACACACTAGAATGATTA [CACACA_site5364],7.13
14,TCTTTTAAAAAAAAAGGAGGAACATAAAAAGTAGAA [XGTACX_negctrl_site272],6.75
15,ATAATTACAAAATAAACACACATATAGATTTATATG [CACACA_site6343],6.35
16,CACATATATATGTGTGCATGTTGTATTATATATTTA [TGCATGCA_site632],8.72
17,TACATAATACATATAACACACACAATTATACATAAA [CACACA_site9060],6.78
18,ATATAATTAAAATGCTCACACACATAAAAAAAAATT [CACACA_site2148],8.58
19,GTACATATATACATTACACACGGTTTGATTTAAAAA [CACACA_site3379],6.65
20,ATTTTATTTTTTAAAGGTACAGTTACAGCTTATATA [XGTACX_site7513],6.29
